{
  "source": "patent US20020168363A1",
  "about": "(published 2002)",
  "binders": {"B1": {"name": "Echistatin-Fc (Fc fusion)", "chain": "[human IgG1 Fc cut from this listing]GGGGGECESGPCCRNCKFLKEGTICKRARGDDMDDYCNGKTCDCPRNPHKGPAT"}},
  "key": {"human αvβ3 [1]": {"target": "T1, human αvβ3 (human, UniProt P06756 31-1048; P05106 27-788)", "T1 chain 1": "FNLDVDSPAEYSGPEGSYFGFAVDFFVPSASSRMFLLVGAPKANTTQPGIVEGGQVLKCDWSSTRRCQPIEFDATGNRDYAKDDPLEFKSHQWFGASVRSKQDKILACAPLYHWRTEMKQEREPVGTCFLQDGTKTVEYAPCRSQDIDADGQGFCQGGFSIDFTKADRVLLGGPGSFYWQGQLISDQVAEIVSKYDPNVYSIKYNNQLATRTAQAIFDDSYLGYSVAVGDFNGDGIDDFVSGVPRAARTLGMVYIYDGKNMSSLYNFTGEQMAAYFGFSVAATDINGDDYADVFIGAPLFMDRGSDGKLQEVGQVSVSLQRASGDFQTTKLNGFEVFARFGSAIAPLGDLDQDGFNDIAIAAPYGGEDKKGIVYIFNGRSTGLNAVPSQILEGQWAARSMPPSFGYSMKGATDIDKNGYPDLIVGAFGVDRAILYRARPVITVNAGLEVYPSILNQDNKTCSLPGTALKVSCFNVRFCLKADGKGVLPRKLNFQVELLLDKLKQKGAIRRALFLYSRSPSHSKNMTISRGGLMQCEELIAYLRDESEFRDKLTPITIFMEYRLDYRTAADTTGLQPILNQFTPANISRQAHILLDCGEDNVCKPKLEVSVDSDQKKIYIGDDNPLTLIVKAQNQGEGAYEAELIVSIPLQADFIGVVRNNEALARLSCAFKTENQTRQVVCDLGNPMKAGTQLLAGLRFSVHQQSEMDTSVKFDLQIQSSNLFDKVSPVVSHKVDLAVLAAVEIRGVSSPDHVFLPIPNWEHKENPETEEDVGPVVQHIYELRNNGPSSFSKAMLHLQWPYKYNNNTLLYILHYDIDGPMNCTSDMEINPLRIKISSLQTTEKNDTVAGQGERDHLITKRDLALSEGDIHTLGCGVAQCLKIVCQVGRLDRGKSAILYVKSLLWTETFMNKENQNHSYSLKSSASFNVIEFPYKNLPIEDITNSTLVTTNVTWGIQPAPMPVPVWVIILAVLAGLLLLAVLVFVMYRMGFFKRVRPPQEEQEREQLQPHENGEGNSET", "T1 chain 2": "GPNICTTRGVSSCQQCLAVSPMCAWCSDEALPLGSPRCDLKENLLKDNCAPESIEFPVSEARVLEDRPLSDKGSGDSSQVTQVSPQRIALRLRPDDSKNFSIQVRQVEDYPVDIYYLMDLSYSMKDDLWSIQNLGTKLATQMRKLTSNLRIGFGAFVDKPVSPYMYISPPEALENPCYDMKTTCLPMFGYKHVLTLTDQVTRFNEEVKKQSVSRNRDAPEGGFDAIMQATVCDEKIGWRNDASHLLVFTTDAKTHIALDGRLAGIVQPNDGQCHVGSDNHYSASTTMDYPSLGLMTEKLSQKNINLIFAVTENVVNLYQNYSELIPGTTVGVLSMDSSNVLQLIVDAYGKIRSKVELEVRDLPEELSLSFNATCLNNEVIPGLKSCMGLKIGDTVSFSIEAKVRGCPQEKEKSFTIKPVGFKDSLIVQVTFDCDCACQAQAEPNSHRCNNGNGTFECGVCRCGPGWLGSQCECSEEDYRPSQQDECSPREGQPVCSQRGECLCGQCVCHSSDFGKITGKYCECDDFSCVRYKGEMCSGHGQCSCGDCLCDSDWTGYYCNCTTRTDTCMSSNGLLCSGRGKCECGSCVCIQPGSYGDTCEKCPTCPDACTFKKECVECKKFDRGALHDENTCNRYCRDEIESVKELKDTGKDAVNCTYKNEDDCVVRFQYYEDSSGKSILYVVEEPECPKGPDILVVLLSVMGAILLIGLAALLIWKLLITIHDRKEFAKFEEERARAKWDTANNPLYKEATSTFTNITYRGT", "assay": "inhibition of hu Vitronectin-Ru binding, solid phase"}, "human αvβ3 [2]": {"target": "T1, human αvβ3", "assay": "inhibition of hu Vitronectin-Ru binding, solid phase"}, "[3]": {"target": "T2, Platelet Fibrinogen Receptor αIIbβ3 (UniProt P08514 32-1039; P05106 27-788)", "assay": "inhibition of hu Fibrinogen-Ru binding"}, "[4]": {"target": "T2, Platelet Fibrinogen Receptor αIIbβ3", "assay": "inhibition of hu Fibrinogen-Ru binding", "remark": "listed apart in the source"}},
  "data": [
    {"binder": "B1", "values": [
      {"measurement": "IC50", "setting": "human αvβ3 [1]", "result": 0.127, "unit": "nM"},
      {"measurement": "Ki", "setting": "human αvβ3 [2]", "result": 0.1, "unit": "nM"},
      {"measurement": "IC50", "setting": "[3]", "result": 0.0719, "unit": "nM"},
      {"measurement": "Ki", "setting": "[4]", "result": 0.0359, "unit": "nM"}
    ]}
  ]
}
